This passage reports self-cleavage results from the RNAGym collection of RNA variant scans (doi:10.1093/nar/gkz1192).

B1: CPEB3 Ribozyme (parent)
chain: UAACAGGGGGCCACAGCAGAAGCGUUCACGUCGCAGCCCCUGUCAGAUUCUGGUGAAUCUGCGAAUUCUGCUGUAUAUCUC

Read counts are not given, so values of variants with three or more changes are uncertain.

Variants of B1 are the subject of this data set. In words: self-cleavage, relative activity (ratio to wild type); higher = more cleavage; in vitro, sequencing. In short, it runs like this:
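Relative activity compares each variant's cleaved/total read fraction with that of the unmutated ribozyme. To get these fractions, barcoded CPEB3 ribozyme libraries from rounds of error-prone PCR were transcribed with T7 RNA polymerase for 5 hours at 37°C and then given 15 min of DNase I treatment before EDTA was added. The RNAs were reverse transcribed with template switching and sequenced on Illumina, and DNA sequencing linked barcodes to variants. A minimum of 5 reads applied, and three batches were averaged.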
G9U A20C U25A G36C A65G U69C U78C: the self-cleavage was found to be 0.03.
On to G9A A21G G42A U66A, for which the self-cleavage worked out at 0.1.
For G9A U26C C32A U51A A64G, the self-cleavage is 0.05.
The same measure for G9C A15C A35G U51A U60A A65U: 0.05; for G9A A21G U31A A47G U78C: 0.19.
As for G9A U74A U76C, the self-cleavage amounted to 0.37.
For G9A G30U G42A U67C U80C, the self-cleavage turned out to be 0.22.
In the case of G9U A28G U41C U54C G63A A65U, the self-cleavage is 0.11.
In the case of G9A U43C A47G U49C, the self-cleavage was 0.38.
For the variant G9A A20G A45U, the self-cleavage worked out at 0.18.
To G9U A20G G33C belongs 0.09; to G9C A15G G63U A77C, 0.28.
Regarding G9A A20G U25C A45G, the self-cleavage was found to be 0.06.
On to G9A A28C A45G A56G A64G U72C, for which the self-cleavage came to 0.
In the case of G9A C23G U25C G33A G36U, the self-cleavage came out at 0.05.
Consider G9A U25C G42A U54C A56G, for which the self-cleavage was 0.1.
Regarding G9C U31A U67C, the self-cleavage is 0.06.
Regarding G9A G24A U51C A77G, the self-cleavage turned out to be 0.05.
In the case of G9A A15G C40U G55A U67A A77G, the self-cleavage was determined as 0.05.
Consider G9A A18U A45C A57G, for which the self-cleavage stood at 0.05.
The same measure for G9A U41C A47G U76C: 0.14; for G9A U26G A28U A35G A65G U72C: 0.07.
To G9U A21G U31C A47G A57G U72A belongs 0.02; to G9A A15G U60C A65G, 0.13; to G9C A13C A35G C38A, 1.05.
As for G9U A21G C23U A47G U48A U60C, the self-cleavage was determined as 0.06.
As for G9A U43A U48C U72C U76C, the self-cleavage was 0.05.
As for G9A U25C U31C A77U, the self-cleavage is 0.27.
Regarding G9A C29G U54C, the self-cleavage is 0.17.
Take G9U A20U A47G: the self-cleavage turned out to be 0.05.
To G9U A21U C38U U54C G73A U80C belongs 0.22.
For the variant G9C A20U G24U U31A C39U U51C U58C, the self-cleavage was 0.02.
To G9U A20G A35U U69C belongs 0.05.
The same measure for G9C A21G U58C: 0.08; for G9A C14U U51G A57G C62U U78C: 0.05.
Regarding G9A A18G A35U U58G, the self-cleavage came out at 0.15.
G9A U25A A35U U67A: the self-cleavage amounted to 0.05.
In the case of G9C U41C A64G U78A, the self-cleavage came out at 0.25.
To G9A A18G U25C U26G belongs 0.1.
Consider G9A G16U G19U U31C U41A G61U, for which the self-cleavage is 0.04.
G9A G16A U25G U60C U72C C79A: the self-cleavage worked out at 0.04.
The same measure for G9U A28G U51A C59A: 0.05; for G9A A20U U54C A77G U80C: 0.08.
To G9U A45G U69A belongs 0.09; to G9A U25C C38U A47U U72C A77G U80A, 0.13; to G9A G19A U25C U43C A56G, 0.14.
The same measure for G9A C17U A20U U26A U60A U76C: 0.05.
As to G9A A15G A28G A47G U67A, the self-cleavage stood at 0.06.
The same measure for G9A A64U U72A U80A: 0.1.
Turning to G9C A28G U67C, the self-cleavage was found to be 0.1.
In the case of G9A C14U U80C, the self-cleavage was 0.65.
With G9C U25C C68U, the self-cleavage turned out to be 0.49.
As for G9C U26C A57U, the self-cleavage is 0.18.
G9U A21G G70A: the self-cleavage came to 0.2.
To G9A C12U U43C U49C A56U belongs 0.05; to G9A G10C G30U, 0.13.
The same measure for G9C G10A U25C G42U A56U U69A: 0.05.
Regarding G9C A64G U66C U74A, the self-cleavage stood at 0.22.
For G9A U43A A57G U78C, the self-cleavage stood at 0.24.
Consider G9A C11U A18U A35C U41C G70C, for which the self-cleavage came to 0.05.
For G9A G33U U41C, the self-cleavage came to 0.07.
To G9A C11G G19C U31A U60C A65G belongs 0.19; to G9A A18G U26C A47G U67C U78G, 0.04; to G9A A15G U66C, 0.25.
G9A A64U A77G: the self-cleavage turned out to be 0.07.
Consider G9A A15G U31C U43A U54C U60C, for which the self-cleavage amounted to 0.04.
For G9A A15U A64G U66C, the self-cleavage came out at 0.06.
As to G9U A28U U48C U54C A75G A77G, the self-cleavage is 0.05.
With G9U A13U A15G A21G A35G A45U U66C, the self-cleavage is 0.05.
For the variant G9A A28G C29U, the self-cleavage amounted to 0.06.
For G9U A18U U25C C68A, the self-cleavage amounted to 0.11.
Turning to G9A A15G G22U U25A U26C A77U, the self-cleavage is 0.33.
Regarding G9A A35C U41C U67C G70C, the self-cleavage was 0.09.
G9A C32A A77U: the self-cleavage was 0.2.
As to G9A A15G C40U U72A, the self-cleavage was determined as 0.2.
On to G9A A18U A28G U54C, for which the self-cleavage stood at 0.24.
The same measure for G9A A18G U43C A45G U51C U78C: 0.04.
Regarding G9A U26A U41A U49A, the self-cleavage came out at 0.04.
In the case of G9A U51A C62U U69A U78A, the self-cleavage worked out at 0.04.
Regarding G9A C62G U72G A75G, the self-cleavage was found to be 0.03.
On to G9A G24A C32U U43C, for which the self-cleavage was found to be 0.11.
For G9A U58A A65G U72C, the self-cleavage was 0.1.
For G9A A20U U72C, the self-cleavage was 0.29.
For G9A C39G U41A A56G U60A U69C, the self-cleavage was 0.14.
On to G9U A18G G33U C50G G61A, for which the self-cleavage worked out at 0.04.
Regarding G9A C11A G19A C23A A35G A45G U69A, the self-cleavage was 0.08.
Consider G9A A45G U48C, for which the self-cleavage came out at 0.17.
Consider G9U A35G U72A A77G, for which the self-cleavage was 0.11.
To G9A C32A U58A A64G G73A A77G belongs 0.03; to G9A C23U U31C, 0.15.
For the variant G9U A20G A28G A65G U66C, the self-cleavage turned out to be 0.04.
The same measure for G9A U25C A35G U43C U74A: 0.08.
To G9C A13C U48C U49C belongs 0.38.
On to G9C A28U C44U U69C, for which the self-cleavage was determined as 0.13.
The same measure for G9A U26A U80C: 0.27; for G9A U31A A47G U72A: 0.21; for G9A U48C U80C: 0.07.
For the variant G9A C14A A20U U41C U54C A65G U80G, the self-cleavage turned out to be 0.01.
On to G9A G19A C38U U78C, for which the self-cleavage was 0.19.
Regarding G9U A15G A35U U49C A64G G73A A75U, the self-cleavage was found to be 0.03.
Regarding G9A U41C U43A U69C, the self-cleavage worked out at 0.06.
Turning to G9A A21U C40G U43C A45U U66C U78C, the self-cleavage is 0.06.
Take G9A A28G U80A: the self-cleavage was found to be 0.09.
For the variant G9A U41A U60C A64G, the self-cleavage was found to be 0.04.
In the case of G9A G22A G30A U31C U51C, the self-cleavage turned out to be 0.05.
For G9A C37U U58C, the self-cleavage was found to be 0.05.
On to G9A C37A U43A U58C A77U, for which the self-cleavage was 0.12.
G9U A21G A35U U51G U66A A75C: the self-cleavage turned out to be 0.03.
Consider G9C A20U A47U, for which the self-cleavage was 0.12.
As for G9A U41C U49A G52C U54C A56G, the self-cleavage amounted to 0.06.
For G9A C32A U49C U69C A77U, the self-cleavage turned out to be 0.13.
To G9A A20C U25C U72C U78C belongs 0.04; to G9A A15G C38U A64G, 0.69; to G9A A20G A45G U69A, 0.26.
G9A C17U U31C U60C U80C: the self-cleavage was 0.05.
Take G9U A21G A28G A57G: the self-cleavage stood at 0.04.
The same measure for G9A A35U A45C U60C U76A: 0.06; for G9A A15G C27A C40U U41G U54A: 0.07.
With G9C A20U U69A, the self-cleavage worked out at 0.04.
Turning to G9U A45G U67C U78C, the self-cleavage amounted to 0.14.
Take G9A U31C A35U A56G U67C U78A: the self-cleavage was determined as 0.04.
Take G9A A21U U80C: the self-cleavage came to 0.11.
As for G9A A28U A56G, the self-cleavage stood at 0.07.
The same measure for G9A A20U U25C A28G A57C A64G: 0.04; for G9A A35G U41C A45G A65G U78C U80A: 0.36; for G9A U49C A56G U60A G63A U66C: 0.12.
In the case of G9A G10U A13G A18G U25C, the self-cleavage came to 0.1.
As for G9A U49C A57G U69C, the self-cleavage stood at 0.06.
The same measure for G9A A20C U69C: 0.04; for G9U A28G A45G U69A: 0.06; for G9U A20G C50U U60C U69G U72C U74C: 0.04.
To G9A A18U G22A U31A U43C A45U belongs 0.06.
For G9U A20G A28G U49C U54A U60C, the self-cleavage amounted to 0.05.
For G9U A20G U25G A47G U49C, the self-cleavage turned out to be 0.04.
On to G9C U41C U69A, for which the self-cleavage came out at 0.24.
With G9A A18G A21G U25C C40U U41A, the self-cleavage amounted to 0.18.
For the variant G9A A35G U49C U54G U60A, the self-cleavage was 0.11.
With G9A A65G U69C, the self-cleavage was 0.12.
With G9A U25C U69A, the self-cleavage was 0.22.
For G9A A18G U41C A45U U48A, the self-cleavage came to 0.12.
Turning to G9A A15G A18G A28C G42A U66A, the self-cleavage worked out at 0.05.
For the variant G9A A21G U25A U26C A45U U48C, the self-cleavage amounted to 0.04.
Consider G9A U31C A77G, for which the self-cleavage was found to be 0.31.
For the variant G9A U60A A65G, the self-cleavage stood at 0.07.
Turning to G9A U41C A47U U60C U67C U72C, the self-cleavage amounted to 0.09.
Consider G9U A28U U49C, for which the self-cleavage was found to be 0.12.
In the case of G9A U26C A75G, the self-cleavage turned out to be 0.2.
Consider G9C U31C U43C U72C, for which the self-cleavage was determined as 0.19.
The same measure for G9A C12A A35G U78C: 0.16; for G9A A18U U31C: 0.37.
On to G9A G19A C40U U78A, for which the self-cleavage stood at 0.36.
On to G9A U49A U66C, for which the self-cleavage stood at 0.16.
Turning to G9A A28U A57G U58C U78A, the self-cleavage stood at 0.08.
Turning to G9A A45G U78C, the self-cleavage is 0.06.
Turning to G9A C12U G53A U60C U72C, the self-cleavage is 0.1.
Consider G9A A15U A57G A64G, for which the self-cleavage was 0.03.
G9A U67A U78A: the self-cleavage stood at 0.18.
Consider G9C U25C U78G, for which the self-cleavage worked out at 0.19.
As for G9A A28G A57U U76C, the self-cleavage came out at 0.18.
Turning to G9U A21G A28G, the self-cleavage amounted to 0.27.
The same measure for G9U A28G U67C: 0.12; for G9A U69A U72A: 0.39.
Turning to G9A G42U U49C U76A, the self-cleavage is 0.23.
G9A A45U U72A: the self-cleavage was determined as 0.15.
Take G9U A15U A45C U66C U78C: the self-cleavage worked out at 0.15.
In the case of G9A A64G U66G U74C U80C, the self-cleavage was 0.05.
The same measure for G9A U48C U66A U72A: 0.08.
